# Test results: PubChem BioAssay AID686979 (National Center for Advancing Translational Sciences (NCATS), 2013)
# In all, about 420,000 compounds went through this assay and about 50,000 (12%) were called active. Inconclusive results, whose numbers are uncertain, are shown with a selection of clear calls. Calls come from the whole dose curve; as a rule, active = well fitted inhibition curve with a large enough effect; inconclusive = small, poorly fitted or top-dose-only effect; inactive = flat fitted curve, though single readings scatter. No potency is given beside an inconclusive call; the fits are too rough.
# Assay: qHTS for Inhibitors of human tyrosyl-DNA phosphodiesterase 1 (TDP1): qHTS in cells in presence of CPT; note: nearly all actives have a fitted effect of over 55% in size
# Settings: chicken DT40 Tdp1-/-;hTDP1 cells + 20 nM CPT, ATP luminescence, 48 h; activity change, negative = growth inhibition: at 46.2 µM (top of the series) unless noted
# Summary of the method: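 Chicken DT40 Tdp1-/- cells stably complemented with human TDP1 were seeded at 400 cells/well in medium containing 20 nM camptothecin, exposed to pin-transferred compounds, and grown at 37 °C for at least 48 hr. Viability was read as ATP luminescence.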
# % is set by controls: 0 for no effect and ±100 for the full control effect; potency is the fitted concentration of half-maximal effect; tags give direction and shape of the fitted curve.
SMILES,"activity change, negative = growth inhibition",Potency
CCOc1ccc(NC(=S)NC(=O)c2ccco2)cc1,inactive: -26.4%,–
O=C(Nc1ccc(S(=O)(=O)N2CCCCC2c2cccnc2)cc1)c1ccccc1F (stereo not given),–,"inconclusive [inhibitor, single point]"
CC(C)CN(C(=O)C1CCCC1)C1CCS(=O)(=O)C1 (stereo not given),inactive: 8.65%,–
O=S(CC(O)c1ccccc1)c1ccccc1 (stereo not given),–,"inconclusive [inhibitor, single point]"
CN(C)S(=O)(=O)N1CCC(Cc2ccccc2)CC1,–,"inconclusive [inhibitor, partial curve]"
CC(=O)Nc1nc(COc2ccc3ccccc3c2)cs1,–,"inconclusive [inhibitor, single point]"
Cc1ccc(CNC(=O)C2CCCN(S(=O)(=O)c3c(C)noc3/C=C/N(C)C)C2)cc1 (stereo not given),–,"inconclusive [inhibitor, single point]"
COc1ccc(CNC(=O)C2(CC3CC(c4ccccc4)=NO3)CCN(C(=O)CCCCCBr)CC2)cc1 (stereo not given),–,active: 9.2 µM
CCSc1ccccc1C(=O)Nc1ccc([N+](=O)[O-])cc1OC,–,"inconclusive [inhibitor, single point]"
CC(C)(C)CN1CCN(Cc2c[nH]c3ccccc23)CC1CCO (stereo not given),–,active: 8.2 µM
COc1ccc(CC2(CO)CCN(Cc3ccc4nsnc4c3)CC2)cc1,–,"inconclusive [inhibitor, partial curve, poor fit]"
C/C(CCC(C)C)=N\NC(=S)NCc1ccccc1,–,"inconclusive [inhibitor, single point]"
Cc1ccc(S(=O)(=O)NCCc2csc(-c3ccc(Cl)cc3)n2)cc1,–,active: 11.6 µM
CCCCN1CC(=O)N2[C@H](c3ccc(Cl)cc3)[C@@H]3C(=O)N(CC)C(=O)[C@@H]3[C@]2(Cc2ccccc2)C1=O,inconclusive: -24.5% [inhibitor],–
COc1cccc(Cn2c(CNC(=O)CCc3ccccc3)nc3cccnc32)c1,–,"inconclusive [inhibitor, single point]"
Nc1nonc1C(=O)NCCNC(=O)c1ccc(Cl)c(Cl)c1,inactive: -2.95%,–
COc1ccc(OC(=O)c2cccc([N+](=O)[O-])c2)c(C(=O)/C=C/c2cccs2)c1,–,"inconclusive [inhibitor, single point]"
COc1cc(NC(=O)CCN2CCN(Cc3ccccc3)CC2)cc(OC)c1,inactive: -40.4%,–
O=C(CSc1nnc(-c2ccncc2)n1-c1ccccc1)N1CCN(c2ccc(Cl)cc2)CC1,–,"inconclusive [inhibitor, single point]"
COc1cccc(CNC(=O)CCn2nc(C)c3c(C)n(-c4ccccc4)nc3c2=O)c1,–,"inconclusive [inhibitor, partial curve]"
